Laboratory results published in the supplement of paper PMC4604168 (melanoma cell lines).
This is one part of the list. Many values rest on one well or one pass, so single values are uncertain.

Key:
Assay in all cases: cell count relative to DMSO control; melanoma cells; higher = more viable cells
Conditions in all cases: library dose: low library concentration; 72 h; first compound 0.4 µM
COLO792 = tested on: COLO792
COLO800 = tested on: COLO800
COLO829 = tested on: COLO829
G361 = tested on: G361
IPC-298 = tested on: IPC-298
IST-MEL1 = tested on: IST-MEL1
LB2518-MEL = tested on: LB2518-MEL
LOXIMVI = tested on: LOXIMVI
MEL-HO = tested on: MEL-HO
MZ2-MEL = tested on: MZ2-MEL
MeWo = tested on: MeWo
RPMI7951 = tested on: RPMI7951
RVH-421 = tested on: RVH-421
SkMel28 = tested on: SkMel28
SkMel2 = tested on: SkMel2
SkMel30 = tested on: SkMel30
SkMel5 = tested on: SkMel5
UACC257 = tested on: UACC257
UACC62 = tested on: UACC62
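Also: cell number obtained by counting DAPI-stained nuclei in high-throughput microscope images with image analysis software, screen run in 1,536-well plates.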

Structure (SMILES)	cell count (COLO792) [%]	cell count (COLO800) [%]	cell count (COLO829) [%]	cell count (G361) [%]	cell count (IPC-298) [%]	cell count (IST-MEL1) [%]	cell count (LB2518-MEL) [%]	cell count (LOXIMVI) [%]	cell count (MEL-HO) [%]	cell count (MZ2-MEL) [%]	cell count (MeWo) [%]	cell count (RPMI7951) [%]	cell count (RVH-421) [%]	cell count (SkMel28) [%]	cell count (SkMel2) [%]	cell count (SkMel30) [%]	cell count (SkMel5) [%]	cell count (UACC257) [%]	cell count (UACC62) [%]
CCCCCCCCCCCCCCCCCCOP(=O)([O-])OC1CC[N+](C)(C)CC1 [Perifosine] + OCCn1cc(-c2cnc3nnn(Cc4ccc5ncccc5c4)c3n2)cn1 [PF04217903] (partner dose 1 µM)	43.4	98.2	76.6	88.3	93.9	96.2	75.9	109	80.9	63.9	96.8	34.5	98.3	76.9	85.4	78.3	91.6	107	83.6
CCCCCCCCCCCCCCCCCCOP(=O)([O-])OC1CC[N+](C)(C)CC1 [Perifosine] + COc1cc2ncnc(Nc3ccc(Oc4ccccc4)cc3)c2cc1OC [SrcI1] (partner dose 2 µM)	107	135	104	98.2	94.3	107	115	143	98.8	99.2	99.3	45.1	94.5	71.2	96.7	90.2	90.2	89.3	97.8
Cn1sc(=O)n(Cc2ccccc2)c1=O + Cc1ccc(NC(=O)c2cccc(N(C)C)c2)cc1NC(=O)c1ccc(O)cc1 [ZM336372] (partner dose 2 µM)	88.1	130	100	96.2	87	92.4	84.8	100	86.5	87.5	89	95.2	93.5	85.6	114	74.8	90.5	83.3	93.3
Cn1sc(=O)n(Cc2ccccc2)c1=O + COc1ccc(COc2ccc(Cc3cnc(N)nc3N)cc2OC)cc1 [GW2580] (partner dose 1 µM)	90.8	90.3	96.1	98.8	102	98	97.7	67.7	104	95.8	103	90.2	108	91.5	103	104	91.3	87.9	97.5
C[C@@H](N)c1ccc(C(=O)Nc2ccnc3[nH]ccc23)cc1 + CCCCCCCCCCCC1=C(O)C(=O)C=C(O)C1=O [Embelin] (partner dose 1.2 µM)	94	141	86	112	100	108	98.2	98.3	87.9	65.6	62.6	85.1	79.7	74.1	95.3	80	69.4	69.3	60.4
Cn1sc(=O)n(Cc2ccccc2)c1=O + Cn1cc(/C=C2\C(=O)Nc3cccnc32)c2ccccc21 [GW441756] (partner dose 0.4 µM)	98.2	95.2	95.4	91.8	109	99.2	110	86.9	105	104	104	106	92.8	84.5	104	88.3	68.7	74.4	87.5
C[C@@H](N)c1ccc(C(=O)Nc2ccnc3[nH]ccc23)cc1 + O=C(Nc1cccc(Cl)c1)Nc1ncc(CCNc2ncnc3ccsc23)s1 [SNS314] (partner dose 0.0008 µM)	80.9	77	92.2	108	96.5	95.3	103	70.6	70.1	85.4	80.9	90.4	69.8	108	96.9	111	97.2	71.9	84.5
C[C@@H](N)c1ccc(C(=O)Nc2ccnc3[nH]ccc23)cc1 + CCN(CC)CCCCNc1ncc2cc(-c3cc(OC)cc(OC)c3)c(NC(=O)NC(C)(C)C)nc2n1 [PD173074] (partner dose 0.1 µM)	82.4	102	91.4	103	99.3	98.5	125	83.2	82.5	68.1	95	65.2	88.3	73	100	91.7	82.5	74.6	83.3
CCCCCCCCCCCCCCCCCCOP(=O)([O-])OC1CC[N+](C)(C)CC1 [Perifosine] + O=C(O)c1ccc(-c2c[nH]c3ncc(-c4ccccc4)cc23)cc1C1CCCC1 [GSK650394] (partner dose 0.16 µM)	100	109	72.2	94.5	99.8	96.6	106	105	96	106	97.9	64.1	89.7	83.5	93.5	107	95.5	64.9	87.6
CCCCCCCCCCCCCCCCCCOP(=O)([O-])OC1CC[N+](C)(C)CC1 [Perifosine] + c1cc(-c2cnn3cc(-c4ccc(OCCN5CCCCC5)cc4)cnc23)ccn1 [Dorsomorphin] (partner dose 0.4 µM)	106	202	115	96.2	104	97.4	84	257	78	96.5	89.4	51.1	89.3	107	105	114	91.2	87.9	88
Cn1sc(=O)n(Cc2ccccc2)c1=O + O=C(CCCCCCC(=O)Nc1ccccc1)NO [vorinostat] (partner dose 0.08 µM)	102	69.2	106	95.1	95.6	110	102	82.6	97.7	97.8	94	99	122	83.1	104	105	89.7	93.5	76.6
CCCCCCCCCCCCCCCCCCOP(=O)([O-])OC1CC[N+](C)(C)CC1 [Perifosine] + COc1cc(Nc2ncc(F)c(Nc3ccc4c(n3)NC(=O)C(C)(C)O4)n2)cc(OC)c1OC [Tamatinib] (partner dose 0.4 µM)	64.5	126	87.5	83.7	73.9	99.2	63.1	87.2	82.9	74.5	72.7	39.8	100	70.8	77.9	46.7	93	81.6	67.2
C[C@@H](N)c1ccc(C(=O)Nc2ccnc3[nH]ccc23)cc1 + CCc1ccc(CCOc2ccc(CC3SC(=O)NC3=O)cc2)nc1 [pioglitazone] (partner dose 2 µM)	102	121	94.4	113	101	97.2	99.5	77.1	88.5	79.4	89.4	70.8	84.6	75.4	107	114	84.9	79.4	92.7
C[C@@H](N)c1ccc(C(=O)Nc2ccnc3[nH]ccc23)cc1 + OCCn1cc(-c2cnc3nnn(Cc4ccc5ncccc5c4)c3n2)cn1 [PF04217903] (partner dose 1 µM)	85.2	108	100	104	105	93.7	111	84.4	76.3	79.1	89.1	67.8	68.3	79.1	107	105	83.5	79.8	83.6
CCCCCCCCCCCCCCCCCCOP(=O)([O-])OC1CC[N+](C)(C)CC1 [Perifosine] + C[C@@H]1CCN(C(=O)CC#N)C[C@@H]1N(C)c1ncnc2[nH]ccc12 [CP690550] (partner dose 1 µM)	107	93.5	132	99.7	103	99.9	93.6	119	117	100	98.2	30.3	91.6	98.8	101	122	101	95.1	87.9
C[C@@H](N)c1ccc(C(=O)Nc2ccnc3[nH]ccc23)cc1 + Oc1nc(-c2ccc(C(F)(F)F)cc2)nc2c1CSCC2 [XAV939] (partner dose 2 µM)	70	102	92.6	84.5	97.7	98.7	51	69.4	90.8	69.9	75.6	67.1	63.4	77.2	92.8	117	84.5	65.4	85.5
Cn1sc(=O)n(Cc2ccccc2)c1=O + O=C(O)C(=O)Nc1sc2c(c1C(=O)O)CCNC2 [TCS401] (partner dose 1.66667 µM)	95.3	137	122	103	104	103	106	77.6	101	99.4	101	83.5	114	101	99.7	99	99.3	101	79.8
Cn1sc(=O)n(Cc2ccccc2)c1=O + COc1ccc2c(c1)CCC1C2CCC2(C)C(NCCCCCCN3C(=O)C=CC3=O)CCC12 [U73122] (partner dose 0.4 µM)	87.6	97.9	117	85.6	101	94.2	89.7	104	93.6	96.2	93.6	89.5	64	97.8	97.8	79.8	100	91.7	94.3
Cn1sc(=O)n(Cc2ccccc2)c1=O + CCc1ccc(CCOc2ccc(CC3SC(=O)NC3=O)cc2)nc1 [pioglitazone] (partner dose 2 µM)	89.6	78.8	77	101	101	105	94.6	84.7	90.1	107	93.5	89.8	88.7	86.2	106	92	98.7	99.7	106
Cn1sc(=O)n(Cc2ccccc2)c1=O + NCC(=O)Nc1ccc(-n2nc(C(F)(F)F)cc2-c2ccc3c(ccc4ccccc43)c2)cc1 [OSU03012] (partner dose 1 µM)	94.1	66.8	92.4	96	76.7	99		109	99.2		53.2	83	112	76.9		52.8	83.3	65.5	86
CCCCCCCCCCCCCCCCCCOP(=O)([O-])OC1CC[N+](C)(C)CC1 [Perifosine] + NC(=O)Nc1cc(-c2cccc(F)c2)sc1C(=O)N[C@H]1CCCNC1 [AZD7762] (partner dose 0.02 µM)	101	99.2	113	121	113	116	162	182	94.4	110	111	60	138	112	110	116	116	154	114
